Measured values published in PMC6919601, “Identification of Plasmodium dipeptidyl aminopeptidase allosteric inhibitors by high throughput screening” (PLoS ONE, 2019).
Values joined by “and” are separate entries in the source; they are usually repeats but may differ in a detail not shown here. Equal entries are not always repeated. Out of some 110,000 compounds screened, about 230 (0.21%) showed an effect of 50% or more. The list shows a part of the results.

Biological target: DPAP1 (Plasmodium falciparum, UniProt Q8IIJ9)
Experiment: primary screen, percent inhibition; read by cleavage of a fluorogenic dipeptide substrate; higher = more effect of the substance
Set-up: species or system P. falciparum D10 trophozoite lysates; single well
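Note: 30 min substrate incubation versus DMSO and 10 µM JCP410 controls.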

Chain of DPAP1 (Q8IIJ9 whole entry, looked up): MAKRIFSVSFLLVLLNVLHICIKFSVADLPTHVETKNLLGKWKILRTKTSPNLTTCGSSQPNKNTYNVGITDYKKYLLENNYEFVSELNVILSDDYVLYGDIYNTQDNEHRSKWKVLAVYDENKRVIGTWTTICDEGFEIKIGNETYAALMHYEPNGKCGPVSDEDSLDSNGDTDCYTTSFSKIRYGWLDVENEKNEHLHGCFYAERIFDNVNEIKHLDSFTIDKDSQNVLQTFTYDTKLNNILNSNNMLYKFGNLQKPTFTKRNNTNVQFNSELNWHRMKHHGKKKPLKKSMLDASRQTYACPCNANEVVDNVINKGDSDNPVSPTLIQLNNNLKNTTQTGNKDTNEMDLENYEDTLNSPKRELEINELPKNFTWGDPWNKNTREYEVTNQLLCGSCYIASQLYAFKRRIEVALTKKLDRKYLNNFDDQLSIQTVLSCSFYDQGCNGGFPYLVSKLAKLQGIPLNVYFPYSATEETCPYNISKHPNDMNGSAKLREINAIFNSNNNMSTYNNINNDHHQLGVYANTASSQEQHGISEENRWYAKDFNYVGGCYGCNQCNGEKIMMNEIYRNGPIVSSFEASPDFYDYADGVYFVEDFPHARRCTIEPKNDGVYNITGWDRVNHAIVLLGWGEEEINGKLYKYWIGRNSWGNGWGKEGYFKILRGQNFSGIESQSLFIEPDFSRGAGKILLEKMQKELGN

Compound	% Inhibition @ 10 uM
COc1ccc(Cl)cc1C(=O)NCc1cnn(C)c1C	-5.34%
O=C(/C=C/c1ccccc1)NC1CC1	2.8%
CC(C)(c1ccccc1)c1ccc(OCC(=O)Nc2nccs2)cc1	-6.6%
COc1ccc(Br)cc1CNC(=O)c1ccc(-n2cnc3cccnc32)cc1	1.48%
CCOC(=O)N1CCC(NCCCOC)CC1	-0.414%
COc1cc(/C=C2/OC(c3ccc(F)cc3)=NC2=O)cc(OC)c1OC	-1.33%
CS(=O)(=O)c1ccc2nc(NC(=O)c3cc4ccccc4o3)sc2c1	-1.47%
O=S(=O)(Cc1ccccc1)NCC1CCCO1 (stereo not shown)	-8.99%
COc1cc(C)c(-n2cnnn2)cc1C(C)C	8.27%
CC(=O)CC1(O)C(=O)N(CN2CCOCC2)c2ccccc21 (stereo not shown)	-4.08%
CC(C)/C=C(/C(=O)c1ccc(Cl)cc1Cl)n1cncn1	-1.71%
CCc1cc2c(C)cc(=O)oc2c2c1OCC2=O	-3.51%
COc1ccc(-c2cc(C(=O)N3CCN(C(=O)c4ccco4)CC3)[nH]n2)cc1	-3.1%
CC1=C(C#N)C(Nc2cc(C)ccn2)(C(F)(F)F)C(=O)N1 (stereo not shown)	6.64%
CCC1CCCCN1CCCNc1ncnc2onc(C)c12 (stereo not shown)	-5.36%
CC1=CSC2=NC(=O)/C(=C\c3cccn3-c3ccccc3)C(=N)N12	1.9%
Cc1c(C(=O)C(F)(F)F)c2ccccc2n1CC(=O)N1CCCCCC1	-0.169%
CCCn1c2ccccc2c2cnn(CC(=O)Nc3cc(C)on3)c(=O)c21	2.82%
Cc1ccc(CCNC(=O)c2cc(S(=O)(=O)N3CCCCC3)c[nH]2)cc1	-4.37%
CCS(=O)(=O)c1c(S(=O)(=O)CC)c2ccc(C(C)=O)cn2c1C(=O)c1ccc(C)cc1C	5.24%
CC(C)C(=O)n1nc(-c2cccnc2)nc1NCc1ccc(F)cc1	2.21%
CCN1CCN(CCNC(=O)CCN2N=C(c3ccc(OC)cc3)CCC2=O)CC1	-6.4%

Compound	% Inhibition @ 10 uM
CC(=O)c1ccc(NC(=O)c2ccc(C(F)(F)F)cc2)cc1	-8.73%
O=C(NCC1CCCO1)c1cccc(NC(=O)c2ccccc2)c1 (stereo not shown)	-3.33%
CCc1ccc(C(=O)NC2=NC(=O)CC(c3ccc(OC)c(OC)c3OC)N2)cc1 (stereo not shown)	-0.601%
O=C(CN1C(=O)S/C(=C/c2cccs2)C1=O)Nc1ccccc1	-1.22%
Cc1ccc(C)c(S(=O)(=O)c2nnn3c2nc(NCc2ccc(F)cc2)c2sccc23)c1	-4.34%
CCn1nc(C)c2c(C(F)(F)C(F)(F)F)cc(=O)n(CC(=O)NCc3ccc(OC)cc3)c21	-0.434%
COc1ccc(S(=O)(=O)NCc2ccc(C(=O)NCCN(CC(C)C)CC(C)C)cc2)cc1	-1.54%
CS(=O)(=O)N1CCC(C(=O)Nc2c(F)cccc2F)CC1	-13.4%
CCN(CC)C(=O)C1CCCN(Cc2ccc(Cl)cc2Cl)C1 (stereo not shown)	-5.68%
Cc1c(C(=O)NCCC2=CCCCC2)oc2ccc(S(=O)(=O)N3CCC4(CC3)OCCO4)cc12	-2.49%
Cc1ccc(S(=O)(=O)N(C)c2ccc(C(=O)NCC3CCCO3)cc2)cc1 (stereo not shown)	-2.21%
CCCCOC(=O)Nc1ccc(S(=O)(=O)Nc2nc(C)cc(C)n2)cc1	3.86%
COCCNC(=O)CCCn1sc2ccccc2c1=O	-2.84%
CC(C)CC(NC(=O)/C=C/c1cccnc1)C(=O)NCC#N (stereo not shown)	5.05%
CN1CCN(CCCNC(=O)c2sc3ccccc3c2Cl)CC1	-2.42%
CC1(c2ccncc2)NC(=O)NC1=O (stereo not shown)	-2.03%
Cc1cc(OCC(=O)N2CCCCC2)ccc1Br	-2.36%
O=C(NCCCCNC(=O)c1cccc(Cl)c1)c1cccc(Cl)c1	-3.45%
CCc1ccccc1S(=O)(=O)Cc1ccc(C(=O)NCc2cccs2)o1	-1.51%
CC[C@H](NC(=O)[C@H](CC(C)C)NC(=O)OCc1ccccc1)C(=O)CS(=O)(=O)c1ccccc1	8.71%
COCCCNC(=O)NC(C)c1c(-n2cccc2)sc(C)c1C (stereo not shown)	-3.34%
CCCO/C(O)=C1\C(C)=NC2=C(C(=O)CCC2)C1c1cccc(F)c1 (stereo not shown)	-2.87%

Compound	% Inhibition @ 10 uM
COc1cc(C2=N/C(=C3/OC(=O)c4ccccc43)C(=O)O2)cc(OC)c1OC	4.54%
COc1ccc(Cl)cc1NS(=O)(=O)c1ccc(F)cc1	2.41%
CCOc1ccc(CC/N=c2/c(-c3ccccc3)c(O)c2=O)cc1OCC	-0.86%
Cc1ccc(Nc2nc(-c3ccc(S(=O)(=O)N4CCOCC4)cc3)cs2)cc1Cl	-0.693% and 0.219%
O=C(O)c1ccc(Oc2ccc([N+](=O)[O-])cc2)cc1	3.16%
O=C(O)C(Cc1ccccc1)N1C(=O)c2cccc3cccc(c23)C1=O (stereo not shown)	0.823%
CCC(C)NC(=O)c1ccc(-c2nc(CS(=O)c3ccccc3)c(C)o2)cc1 (stereo not shown)	3.14%
O=C1NC(=O)/C(=C/c2cc3ccccc3[nH]2)N1	2.78%
CC(C)c1ccc(CN(C(=O)COc2ccccc2Cl)C2CCS(=O)(=O)C2)cc1 (stereo not shown)	0.413%
O=C(NCc1ccco1)c1c2c(nc3ccccc13)C(=O)N(C1CCCCC1)C2	-7.5%
CCCn1c(NCc2ccc(C)o2)nc2ccccc21	1.64%
Fc1ccc(N2CCN(Cc3ccc(Br)cc3)CC2)cc1	4.67%
O=c1c2c3c(sc2nc2c4ccccc4c(N4CCOCC4)nn12)CCCCC3	4.49%
CCCCN(C)CCCNC(=O)C1CCN(C(=O)c2cc3sccc3n2C)CC1	-3.35%
COc1ccc(C(=O)Nc2cc3ccc(O)cc3oc2=O)cc1	1.72%
CCOC(=O)Nc1noc2ccccc12	-6.5%
CCOC(=O)C1=C(C)OC(N)=C(C#N)C1c1c(C)cc(C)cc1C (stereo not shown)	4.98%
O=C(O)c1ccc(N2C(=O)c3ccccc3C2=O)cc1O	1.96%
CC1CCN(C(=O)c2cc(-c3ccccc3O)on2)CC1	-4.43%
COc1ccc(-c2nn(C)c3sc(C(=O)NCc4ccc5c(c4)OCO5)cc23)cc1OC	-2.29%
